Test: label from the status in PepcDB records

IDEGPLAFATPEQISMDLKNELMYQLEQDHDLQAILQERELLPVKKFESEILEAISQNSVVIIRGATGCGKTTQVPQFILDDFIQNDRAAECNIVVTQPRRISAVSVAERVAFERGEEPGKSCGYSVRFESILPRPHASIMFCTVGVLLRKLEAGIRGISHVIVDEIHERDINTDFLLVVLRDVVQAYPEVRIVLMSATIDTSMFCEYFFNCPIIEVYGRTYPVQEYFLEDCIQMTHFVPPP
protein production: failed

MSLKIAEIQLFQHDLPVVNGPYRIASGDVWSLTTTIVKIIAEDGTIGWGETCPVGPTYAEAHAGGALAALEVLASGLAGAEALPLPLHTRMDSLLCGHNYAKSALDIAVHDLWGKRLGVPVHELLGGALTDSVSSYYSLGVMEPDEAARQALEKQREGYSRLQVKLGARPIEIDIEAIRKVWEAVRGTGIALAADGNRGWTTRDALRFSRECPDIPFVMEQPCNSFEDLEAIRPLCHHALYMDEDGTSLNTVITAAATSLVDGFGMKVSRIGGLQHMRAFRDFCAARNLPHTCDDAWGGDIVSAACTHIASTVLPRLMEGAWLAQPYVAEHYDAENGVRIEGGRIRVPQGPGLGLTIDPERFGPPLFSAEGHHHHHH
protein production: not failed
